Measured values published in PubChem BioAssay AID463173 (ICCB-Longwood Screening Facility, Harvard Medical School, 2010).
In all, about 52,000 compounds went through this assay and about 1,700 (3.3%) were called active. No stated cut-off is given here; in the data, active means survival mostly below about 52% (no sharp cut-off); inactive means mostly above about 56%. Some of the results follow.

system: Wild type; assay: S. aureus survival, RN4220 and DeltatarO strains – OD600, teichoic acid synthesis inhibitors, primary screen (AID 463173); conditions: S. aureus RN4220 wild type/DeltatarO growth, OD600, 18 h, hits give low values, screened at 18.75 µg/mL (by protocol)

Row | SMILES | survival
1 | CC(=O)Nc1ccc(NC(=O)C(c2ccccc2)N2Cc3ccccc3C2=O)cc1 (stereo not drawn) | inactive: 123%
2 | COC(=O)c1ccc(-c2nc(-c3ccc(OC)c(OC)c3)no2)cc1 | inactive: 83%
3 | CCc1ccc(C(=O)NC2=NC(c3cc(OC)ccc3OC)CC(=O)N2)cc1 (stereo not drawn) | inactive: 98%
4 | COc1ccc(-c2cc(C(F)(F)F)n3nc(C(=O)Nc4sc5c(c4C(=O)OC(C)C)CCC(C)C5)cc3n2)cc1 (stereo not drawn) | inactive: 80%
5 | CCCN(CCC)C(=O)C1CCCN(S(=O)(=O)c2cc(Br)cc3c2N(C(=O)CC)CC3)C1 (stereo not drawn) | inactive: 92%
6 | O=C(Nc1ccc(-c2nc3cc(NC(=O)c4ccc(Cl)cc4)ccc3o2)cc1)c1ccc(Cl)cc1 | inactive: 69%
7 | O=C(c1ccc2c(c1)N(Cc1ccc(Cl)cc1)C(=O)c1ccccc1S2(=O)=O)N1CCN(Cc2ccccc2)CC1 | inactive: 92%
8 | Cc1cc(C)cc(NC(=O)CCc2c(C)nc3c(c2C)c(=O)n(C)c(=O)n3C)c1 | inactive: 83%
9 | CCc1ccc(-n2nc(CO)c(C(=O)NCc3cccnc3)n2)cc1 | inactive: 87%
10 | COc1ccc(CCCc2n[nH]c(=S)n2C)cc1C | inactive: 110%
11 | Cc1nc2ccc(S(=O)(=O)NC(C(=O)N3CCN(c4cccc(Cl)c4)CC3)C(C)C)cc2s1 (stereo not drawn) | inactive: 96%
12 | O=C(NC1CCCCC1)NC1CCN(CC(=O)c2ccc(Cl)cc2)CC1 | inactive: 106%
13 | COc1ccc(N2C(=O)CCSC23C(=O)N(Cc2ccc(F)cc2)c2ccccc23)cc1 (stereo not drawn) | inactive: 70%
14 | Cc1ccc(-c2onc(C)c2C)cc1S(=O)(=O)Nc1cccc(Cl)c1C | inactive: 55%
15 | O=S(=O)(c1ccc(Br)cc1)c1nnn2c1nc(NCCc1ccccc1)c1sccc12 | inactive: 42%
16 | Cc1ccc(CCNC(=O)CCn2nc(-c3ccc(Cl)cc3)ccc2=O)cc1 | inactive: 60%
17 | Cc1cn2c(=O)c(S(=O)(=O)Nc3ccc(N4CCOCC4)cc3)c(C)nc2s1 | inactive: 94%
18 | Cc1nc(N2CCCC2)ncc1C(=O)NCc1ccc(F)cc1 | inactive: 68%
19 | CC1CCN(S(=O)(=O)c2cc(C(=O)NCc3ccccc3)n(C)c2)CC1 | inactive: 71%
20 | COc1cc2ncc3c(-c4ccccc4)nn(CC(=O)NC4CCCCC4)c3c2cc1OC | inactive: 79%
21 | COCCNC(=O)c1cnn(-c2cccc(C)c2)c1-n1cccc1 | inactive: 99%
22 | CN(C(=O)c1ccc2c(c1)N(Cc1ccc(F)cc1)C(=O)c1ccccc1S2(=O)=O)C1CCCCC1 | inactive: 84%

Row | SMILES | survival
23 | COc1ccc(C(=O)NNc2ncnc3c2cnn3-c2ccc(C)cc2C)cc1 | active: -3%
24 | CCC(CC)C(=O)Nc1nnc(S(=O)(=O)N2c3ccccc3CC2C)s1 (stereo not drawn) | inactive: 83%
25 | CCOCCCn1c(=N)c(C(=O)NC(C)c2ccccc2)cc2c(=O)n3cccc(C)c3nc21 (stereo not drawn) | inactive: 131%
26 | COc1ccc(C2=C(C)C(N3CCN(c4ccc(OC)cc4)CC3)=NS2(=O)=O)cc1 | inactive: 88%
27 | COc1ccc(CNC(=O)C(OC(=O)c2ccco2)c2ccc(C)cc2)cc1 (stereo not drawn) | inactive: 106%
28 | Cc1ccc2occ(CC(=O)Nc3ccc(Cl)c(C(F)(F)F)c3)c2c1 | inactive: 71%
29 | Cc1cc(N2CCC(C(=O)Nc3ccccc3Cl)CC2)n2nc(C)c(-c3ccc(Cl)cc3)c2n1 | inactive: 85%
30 | Fc1cccc(-c2nnn3c2nc(NCc2ccc4c(c2)OCO4)c2ccccc23)c1 | inactive: 133%
31 | CCOC(=O)Cn1c(=O)oc2cc(S(=O)(=O)NC(C)c3ccccc3)ccc21 (stereo not drawn) | inactive: 66%
32 | COC(=O)c1nc2n(n1)C(c1cc(OC)ccc1OC)C=C(c1ccc(Br)cc1)N2 (stereo not drawn) | inactive: 69%
33 | C=C(C)CN1N=C(C(C)(C)C)CC1=O | inactive: 100%
34 | CCc1ccc(CN(C(=O)Nc2cccc(Cl)c2)c2ccccn2)cc1 | inactive: 104%
35 | O=C(c1ccccc1F)N1c2nc(-c3ccco3)nn2C2(CCCCC2)[C@@H]2CCCC[C@@H]21 | inactive: 93%
36 | Cc1c(Cl)cccc1NS(=O)(=O)c1ccc(NS(=O)(=O)c2ccc3c(c2)OCCO3)cc1 | inactive: 34%
37 | COc1ccc(Cl)cc1NC(=O)c1cnc(N2CCCCC2)c2ccccc12 | inactive: 80%
38 | COc1ccccc1CNC(=O)c1ccc(-n2c(C)cc3c2CCCC3)cc1 | inactive: 85%
39 | CCOC(=O)c1ccccc1NC(=O)N1CC(C)Oc2ccc(C)cc21 (stereo not drawn) | inactive: 100%
40 | CCOc1ccc(NC(=O)C2CCN(S(=O)(=O)c3c(C)noc3/C=C/c3ccco3)CC2)cc1 | inactive: 73%
41 | COC(=O)CNc1ccc(C)c(C)c1 | inactive: 117%
42 | CCCCOC(=O)/C(C#N)=C\c1ccc(-c2ccc(Cl)cc2)o1 | inactive: 76%
43 | CCOc1ccc(NC(=O)CCn2cccn2)cc1 | inactive: 89%
44 | Cc1ccc(-c2nc3ccccn3c2Nc2ccc3c(c2)OCCO3)o1 | inactive: 62%

Row | SMILES | survival
45 | O=C1CN(C(=O)COc2ccc(Cl)cc2)C(c2ccc(F)cc2)c2cc(Cl)ccc2N1 (stereo not drawn) | inactive: 39%
46 | CCOC(=O)N1CCN(C(=O)c2ccc3c(c2)N(Cc2cccc(Cl)c2)C(=O)c2ccccc2S3=O)CC1 (stereo not drawn) | inactive: 81%
47 | CC(=O)c1ccc(C(=O)N(Cc2cccnc2)c2nc3c(C)c(C)ccc3s2)cc1 | active: -3%
48 | COc1cc(NC(=O)C(=O)Nc2ccc3nc4n(c(=O)c3c2)CCCCC4)cc(OC)c1OC | inactive: 80%
49 | O=C(Nc1ccc(Br)cc1)C1CCN(c2ncccn2)CC1 | inactive: 89%
50 | Cc1ccc(NC(=O)N2CCN(C)c3ncccc32)cc1C | inactive: 81%
51 | O=C(CN1C(=O)COc2ccc(S(=O)(=O)N3CCCCCC3)cc21)NCCc1ccccc1 | inactive: 92%
52 | COc1cc(OC)c(N(C)C(=O)Cn2ncc3c(=O)oc4ccccc4c32)cc1Cl | inactive: 73%
53 | Cc1ccc(CN2C(=O)N(c3ccccc3)C(=O)C2CC(=O)Nc2ccccc2)cc1 (stereo not drawn) | inactive: 78%
54 | COCCNC(=O)c1c(NC(=O)c2cc(=O)c3cc(Cl)ccc3o2)sc2c1CCCC2 | inactive: 85%
55 | COC(=O)c1ccccc1NC(=O)N1CCC(n2c(C)nc3cccnc32)CC1 | inactive: 115%
56 | O=C(Nc1ccccc1)C1C2C=CC3(O2)C1C(=O)N(C1CCCC1)C3C(=O)NC1CCCCC1 (stereo not drawn) | inactive: 103%
57 | COc1ccccc1NC(=O)Cn1nnc(C(=O)Nc2ccccc2Br)c1N | inactive: 85%
58 | CCc1cccc(C)c1NC(=O)Cn1cc2c(n1)CCCCC2 | inactive: 82%
59 | CCC(C)NC(=O)CSc1nc(-c2ccc(F)cc2)cc(C(F)(F)F)n1 (stereo not drawn) | inactive: 81%
60 | COC(=O)c1ccccc1NC(=O)c1cnc2sc(N3CCOCC3)nn2c1=O | inactive: 140%
61 | CC(=O)N1CCN(c2csc3ccc(Br)cc3c2=O)CC1 | inactive: 74%
62 | Cc1ccc(CNC(=O)c2cc(=O)c3cc(C)cc(C)c3o2)cc1 | inactive: 105%
63 | CCOc1ccc(NC(=O)c2cc3cc4cc(OC)ccc4nc3s2)cc1 | inactive: 80%
64 | COc1ccc(Cn2nnnc2CN2CCc3ccccc32)cc1 | inactive: 109%
65 | CCc1nn(CCCC(=O)NCc2cc(Br)ccc2OC)c(=O)c2cc3occc3n12 | inactive: 78%
66 | COc1cccc(C(=O)Nc2cccc(C(=O)OCc3cc(=O)n4c5c(sc4n3)CCCC5)c2)c1 | inactive: 88%

Row | SMILES | survival
67 | Cc1cccc(NS(=O)(=O)c2ccc3c(c2)OCC(C(=O)N2CCCC2)O3)c1C (stereo not drawn) | inactive: 60%
68 | O=c1c2cccnc2n(Cc2cccc(F)c2)c(=O)n1Cc1ccccc1Cl | inactive: 93%
69 | Cc1ccc(-c2nnc(Nc3ccc(O)cc3)c3ccccc23)cc1S(=O)(=O)N1CCCCC1 | inactive: 119%
70 | COc1ccc2cc(CNc3ccc(C)cc3)c(=O)n(CC(=O)Nc3cccc(C(F)(F)F)c3)c2c1 | inactive: 88%
71 | CCOC(=O)CSc1nc2c(sc3cccc(F)c32)c(=O)n1Cc1ccc(OC)cc1 | inactive: 72%
72 | O=C(NCCS(=O)(=O)N1CCN(c2ccc(F)cc2)CC1)C1CC(=O)N(c2ccccc2)C1 (stereo not drawn) | inactive: 68%
73 | CS(=O)(=O)Cc1nc2ccccc2oc1=O | inactive: 92%
74 | CC(C)(C)C(=O)Nc1ccc2nc(SCC(=O)N3CCc4ccccc43)sc2c1 | inactive: 105%
75 | Cc1ccc(S(=O)(=O)c2cn(CC(=O)Nc3ccc4c(c3)OCO4)c3ccccc3c2=O)cc1C | inactive: 117%
76 | COc1ccccc1-n1c(=O)c2c3c(sc2n(Cc2ccccc2F)c1=O)CN(C(C)=O)CC3 | inactive: 128%
77 | CC(C)c1cc(-c2nc(-c3ccc(Br)cc3)no2)n[nH]1 | inactive: 78%
78 | Cc1cc2c(n1-c1ccc(C(=O)NCCc3ccccc3)cc1)CCC(C)C2 (stereo not drawn) | inactive: 73%
79 | CCCN(Cc1cccs1)C(=O)Nc1ccc(Br)cc1F | inactive: 76%
80 | COc1cc2nc(C3CCC3)n(NC(=O)c3ccccc3C)c(=O)c2cc1OC | inactive: 115%
81 | CCCN1CCN(CCNC(=O)Nc2ccccc2OCC)CC1 | inactive: 86%
82 | CCN1CCN(c2ncc3c(n2)CCN(Cc2ccc(OC)c(OC)c2)C3)CC1 | inactive: 63%
83 | COc1ccc2[nH]c(=O)c(CN(C(=O)c3cccc(Cl)c3)c3cccc(C)c3)cc2c1 | inactive: 81%
84 | CCN1C(=O)c2ccccc2S(=O)c2ccc(C(=O)N3CCN(c4ccccc4OC)CC3)cc21 (stereo not drawn) | inactive: 86%
85 | COc1cccc(CNC(=O)CCCCCn2c(=O)[nH]c3cc(OC)c(OC)cc3c2=O)c1 | inactive: 143%
86 | CCOC(=O)c1c(C)[nH]c(C)c1S(=O)(=O)NCC(=O)NCc1ccccc1Cl | inactive: 72%
87 | COc1cc(C(CC(=O)Nc2cc(C)ccn2)N2Cc3ccccc3C2=O)cc(OC)c1OC (stereo not drawn) | inactive: 88%
88 | CN(Cc1ccccc1)C(=O)c1cc(-c2cccc(Cl)c2)on1 | active: -15%
